Measured values reported in the supplement of paper PMC8728848.
This is one part of the list.

Experiments:
Assay in all cases: glycan array binding signal (z-score within array); higher = stronger binding
Settings in all cases: glycan notation: IUPAC condensed, linker removed
[1] = target: Gal(b1-3)GlcNAc(b1-3)Gal(b1-4)GlcNAc
Method in brief: (§1)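 The Consortium for Functional Glycomics database supplied 3228 glycan arrays, of which those lacking an available protein sequence were dropped. The binding signal, a within-array Z-score, was averaged across arrays of the same protein sequence and across linkers. Negative scores can be read as non-binding.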

[2] = target: Gal(b1-3)GlcNAc(b1-3)Gal(b1-4)GlcNAc(b1-6)[Gal(b1-3)GlcNAc(b1-3)]Gal(b1-4)Glc
Method in brief: as §1

[3] = target: Gal(b1-3)GlcNAc(b1-3)Gal(b1-4)[Fuc(a1-3)]GlcNAc(b1-6)[Gal(b1-3)GlcNAc(b1-3)]Gal(b1-4)Glc
Method in brief: as §1

[4] = target: Gal(b1-3)GlcNAc(b1-3)GalNAc
Method in brief: as §1

[5] = target: Gal(b1-3)GlcNAc(b1-6)Gal(b1-4)GlcNAc
Method in brief: as §1

[6] = target: Gal(b1-3)[Fuc(a1-4)]GlcNAc
Method in brief: as §1

[7] = target: Gal(b1-3)[Fuc(a1-4)]GlcNAc(b1-2)Man(a1-3)[Gal(b1-3)[Fuc(a1-4)]GlcNAc(b1-2)Man(a1-6)]Man(b1-4)GlcNAc(b1-4)GlcNAc
Method in brief: as §1

[8] = target: Gal(b1-3)[Fuc(a1-4)]GlcNAc(b1-2)Man(a1-3)[Gal(b1-3)[Fuc(a1-4)]GlcNAc(b1-2)Man(a1-6)]Man(b1-4)GlcNAc(b1-4)[Fuc(a1-6)]GlcNAc
Method in brief: as §1

[9] = target: Gal(b1-3)[Fuc(a1-4)]GlcNAc(b1-3)Gal(b1-3)[Fuc(a1-4)]GlcNAc
Method in brief: as §1

[10] = target: Gal(b1-3)[Fuc(a1-4)]GlcNAc(b1-3)Gal(b1-4)GlcNAc
Method in brief: as §1

[11] = target: Gal(b1-3)[Fuc(a1-4)]GlcNAc(b1-3)Gal(b1-4)[Fuc(a1-3)]GlcNAc
Method in brief: as §1

[12] = target: Gal(b1-3)[GlcNAc(b1-6)]GalNAc
Method in brief: as §1

[13] = target: Gal(b1-3)[Neu5Ac(a2-6)]GalNAc
Method in brief: as §1

[14] = target: Gal(b1-3)[Neu5Ac(a2-6)]GlcNAc(b1-6)Gal(b1-4)Glc
Method in brief: as §1

[15] = target: Gal(b1-3)[Neu5Ac(b2-6)]GalNAc
Method in brief: as §1

Gal(b1-4)Gal = target: Gal(b1-4)Gal
Method in brief: as §1

[16] = target: Gal(b1-4)GalNAc(a1-3)[Fuc(a1-2)]Gal(b1-4)GlcNAc
Method in brief: as §1

[17] = target: Gal(b1-4)GalNAc(b1-3)[Fuc(a1-2)]Gal(b1-4)GlcNAc
Method in brief: as §1

Gal(b1-4)Glc = target: Gal(b1-4)Glc
Method in brief: as §1

Gal(b1-4)Glc6S = target: Gal(b1-4)Glc6S
Method in brief: as §1

Gal(b1-4)GlcNAc = target: Gal(b1-4)GlcNAc
Method in brief: as §1

[18] = target: Gal(b1-4)GlcNAc(a1-6)Gal(b1-4)GlcNAc
Method in brief: as §1

Gal(b1-4)GlcNAc(b1-2)Man = target: Gal(b1-4)GlcNAc(b1-2)Man
Method in brief: as §1

[19] = target: Gal(b1-4)GlcNAc(b1-2)Man(a1-3)Man(b1-4)GlcNAc(b1-4)GlcNAc
Method in brief: as §1

[20] = target: Gal(b1-4)GlcNAc(b1-2)Man(a1-3)[Gal(b1-4)GlcNAc(b1-2)Man(a1-6)]Man(b1-4)GlcNAc(b1-4)GlcNAc
Method in brief: as §1

[21] = target: Gal(b1-4)GlcNAc(b1-2)Man(a1-3)[Gal(b1-4)GlcNAc(b1-2)Man(a1-6)]Man(b1-4)GlcNAc(b1-4)[Fuc(a1-6)]GlcNAc
Method in brief: as §1

[22] = target: Gal(b1-4)GlcNAc(b1-2)Man(a1-3)[Gal(b1-4)GlcNAc(b1-2)][GlcNAc(b1-4)]Man(b1-4)GlcNAc(b1-4)GlcNAc
Method in brief: as §1

[23] = target: Gal(b1-4)GlcNAc(b1-2)Man(a1-3)[GlcNAc(b1-2)Man(a1-6)]Man(b1-4)GlcNAc(b1-4)GlcNAc
Method in brief: as §1

[24] = target: Gal(b1-4)GlcNAc(b1-2)Man(a1-3)[Man(a1-6)]Man(b1-4)GlcNAc(b1-4)GlcNAc
Method in brief: as §1

[25] = target: Gal(b1-4)GlcNAc(b1-2)Man(a1-6)Man(b1-4)GlcNAc(b1-4)GlcNAc
Method in brief: as §1

[26] = target: Gal(b1-4)GlcNAc(b1-2)Man(a1-6)[GlcNAc(b1-2)Man(a1-3)]Man(b1-4)GlcNAc(b1-4)GlcNAc
Method in brief: as §1

[27] = target: Gal(b1-4)GlcNAc(b1-2)Man(a1-6)[Man(a1-3)]Man(b1-4)GlcNAc(b1-4)GlcNAc
Method in brief: as §1

[28] = target: Gal(b1-4)GlcNAc(b1-2)[Gal(b1-4)GlcNAc(b1-4)]Man(a1-3)[Gal(b1-4)GlcNAc(b1-2)Man(a1-6)]Man(b1-4)GlcNAc(b1-4)GlcNAc
Method in brief: as §1

[29] = target: Gal(b1-4)GlcNAc(b1-2)[Gal(b1-4)GlcNAc(b1-4)]Man(a1-3)[Gal(b1-4)GlcNAc(b1-2)[Gal(b1-4)GlcNAc(b1-6)]Man(a1-6)]Man(b1-4)GlcNAc(b1-4)GlcNAc
Method in brief: as §1

[30] = target: Gal(b1-4)GlcNAc(b1-2)[Gal(b1-4)GlcNAc(b1-4)]Man(a1-3)[GlcNAc(b1-4)][Gal(b1-4)GlcNAc(b1-2)Man(a1-6)]Man(b1-4)GlcNAc(b1-4)GlcNAc
Method in brief: as §1

[31] = target: Gal(b1-4)GlcNAc(b1-2)[Gal(b1-4)GlcNAc(b1-4)]Man(a1-3)[GlcNAc(b1-4)][Gal(b1-4)GlcNAc(b1-2)[Gal(b1-4)GlcNAc(b1-6)]Man(a1-6)]Man(b1-4)GlcNAc(b1-4)GlcNAc
Method in brief: as §1

[32] = target: Gal(b1-4)GlcNAc(b1-2)[Gal(b1-4)GlcNAc(b1-6)]Man(a1-6)[Gal(b1-4)GlcNAc(b1-2)Man(a1-3)]Man(b1-4)GlcNAc(b1-4)GlcNAc
Method in brief: as §1

[33] = target: Gal(b1-4)GlcNAc(b1-2)[Gal(b1-4)GlcNAc(b1-6)]Man(a1-6)[GlcNAc(b1-4)][Gal(b1-4)GlcNAc(b1-2)Man(a1-3)]Man(b1-4)GlcNAc(b1-4)GlcNAc
Method in brief: as §1

B1: ConA (Canavalia ensiformis), P02866 (protein)
chain: MAISKKSSLFLPIFTFITMFLMVVNKVSSSTHETNALHFMFNQFSKDQKDLILQGDATTGTDGNLELTRVSSNGSPQGSSVGRALFYAPVHIWESSAVVASFEATFTFLIKSPDSHPADGIAFFISNIDSSIPSGSTGRLLGLFPDANVIRNSTTIDFNAAYNADTIVAVELDTYPNTDIGDPSYPHIGIDIKSVRSKKTAKWNMQNGKVGTAHIIYNSVDKRLSAVVSYPNADSATVSYDVDLDNVLPEWVRVGLSASTGLYKETNTILSWSFTSKLKSNEIPDIATVV
glycan array binding signal (z-score) [1]: -0.264 | glycan array binding signal (z-score) [2]: -0.168 | glycan array binding signal (z-score) [3]: -0.18 | glycan array binding signal (z-score) [4]: -0.238 | glycan array binding signal (z-score) [5]: -0.229 | glycan array binding signal (z-score) [6]: -0.274 | glycan array binding signal (z-score) [7]: -0.093 | glycan array binding signal (z-score) [8]: 0.603 | glycan array binding signal (z-score) [9]: -0.207 | glycan array binding signal (z-score) [10]: -0.285 | glycan array binding signal (z-score) [11]: -0.296 | glycan array binding signal (z-score) [12]: -0.234 | glycan array binding signal (z-score) [13]: -0.129 | glycan array binding signal (z-score) [14]: -0.273 | glycan array binding signal (z-score) [15]: -0.273 | glycan array binding signal (z-score) (Gal(b1-4)Gal): -0.213 | glycan array binding signal (z-score) [16]: -0.281 | glycan array binding signal (z-score) [17]: -0.258 | glycan array binding signal (z-score) (Gal(b1-4)Glc): -0.273 | glycan array binding signal (z-score) (Gal(b1-4)Glc6S): -0.273 | glycan array binding signal (z-score) (Gal(b1-4)GlcNAc): -0.225 | glycan array binding signal (z-score) [18]: -0.187 | glycan array binding signal (z-score) (Gal(b1-4)GlcNAc(b1-2)Man): -0.193 | glycan array binding signal (z-score) [19]: -0.192 | glycan array binding signal (z-score) [20]: 2.21 | glycan array binding signal (z-score) [21]: 0.005 | glycan array binding signal (z-score) [22]: -0.224 | glycan array binding signal (z-score) [23]: 0.311 | glycan array binding signal (z-score) [24]: 1.08 | glycan array binding signal (z-score) [25]: -0.193 | glycan array binding signal (z-score) [26]: -0.152 | glycan array binding signal (z-score) [27]: 0.688 | glycan array binding signal (z-score) [28]: -0.139 | glycan array binding signal (z-score) [29]: -0.122 | glycan array binding signal (z-score) [30]: -0.211 | glycan array binding signal (z-score) [31]: -0.196 | glycan array binding signal (z-score) [32]: -0.147 | glycan array binding signal (z-score) [33]: -0.24
